The values below come from ChEMBL document CHEMBL1201862, “PubChem BioAssay data set” (2004).

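Results reflect a 48-hour exposure of cells in 96-well plates to compound at five concentrations. GI50 = concentration required for 50% inhibition of growth.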 Calls of active or inactive are those of the source. Rule as the data show it: active = GI50 up to about 1.1 µM and inactive = higher.

This experiment has as its system NCI-H322M. In words: NCI-60 cell line screen, 48 h.
As to `N=C(CC(=O)Nc1ccccn1)c1ccccc1`, the GI50 was inactive: > 100 µM.
On to `CN(C)CCNC(=O)c1ccc(Cl)c2cc3ccccc3nc12`, for which the GI50 is active: 0.82 µM.
Turning to `CC(=O)/C(=C\c1ccccc1)C(=O)Nc1ccccc1`, the GI50 was inactive: > 100 µM.
Consider `O=c1[nH]c(=O)n(C2CC(O)C(CO)O2)cc1C#Cc1c(F)c(F)c(F)c(F)c1F` (stereo not drawn), for which the GI50 was inactive: > 100 µM.
As to `CC1(C)OP23(NC(=O)OC2(C(F)(F)F)c2ccccc2O3)OC1(C)C` (stereo not drawn), the GI50 was inactive: > 100 µM.
`CN(C)c1ccc(/C=C/C=c2/c3ccccc3n3c2cc(-c2ccccc2)[n+]3C)cc1`: the GI50 was active: 0.312 µM.
For `O=C1C=CC=CC2CC=C[C@@H](O)C12` (stereo partly drawn), the GI50 was inactive: 26.4 µM.
With `CC1CCCCNC1=S` (stereo not drawn), the GI50 was inactive: > 10 µM.
`COc1cc(OC)c2nc3occc3c(OC)c2c1`: the GI50 is inactive: > 100 µM.
On to `COc1ccc2nc3ccc(OC)cc3c(SCCO)c2c1`, for which the GI50 was inactive: 38.6 µM.
In the case of `CCCC(CCC(=O)O)(CCC(=O)O)[N+](=O)[O-]`, the GI50 was inactive: > 100 µM.
In the case of `c1ccc(SCCCC(Sc2ccccc2)Sc2ccccc2)cc1`, the GI50 was inactive: > 100 µM.
In the case of `S=P(N1CCCC1)(N1CC1)N1CC1`, the GI50 is inactive: > 100 µM.
Take `Cc1n[nH]c(=O)n1/N=C\c1ccccc1`: the GI50 is inactive: > 100 µM.
With `CS/C(=N\c1nccs1)NC(=O)c1cccc(Cl)c1`, the GI50 was inactive: > 100 µM.
As to `NNC(=O)Cn1c2ccc(Br)cc2c2nc3ccccc3nc21`, the GI50 was inactive: 3.75 µM.
On to `N=C(N)N/N=C(\c1ccc(F)cc1)c1ccc(C(F)(F)F)cc1`, for which the GI50 is active: 0.418 µM.
Consider `O=C(/C=C/c1ccccc1Cl)c1ccc(Cl)c(Cl)c1`, for which the GI50 is inactive: 41.8 µM.
As to `OCC(CCc1c[nH]c2ccccc12)c1c[nH]c2ccccc12` (stereo not drawn), the GI50 was inactive: 16.3 µM.
Turning to `CC(=O)N1C(Nc2ccccn2)CCN1c1ccccc1` (stereo not drawn), the GI50 is inactive: > 10 µM.
`CN1CN(C(=O)N2CN(C)C(=O)N(C)C2)CN(C)C1=O`: the GI50 is inactive: > 100 µM.
To `O=C(/C=C/c1ccc(O)c(O)c1)c1cc(O)cc(O)c1` belongs inactive: 15.3 µM.
`O=C(Nc1ccccc1C(=O)NCc1ccccc1)/C(=C/c1ccccc1)NC(=O)c1ccccc1`: the GI50 is inactive: > 100 µM.
Take `O=C(N/N=C(/c1nc2ccc(Cl)cc2[nH]c1=O)C(O)c1ccc(Cl)cc1Cl)c1ccncc1` (stereo not drawn): the GI50 is inactive: > 100 µM.
Then `CC(=O)OC(CN1CCN(c2ccccn2)CC1)Cn1sc2nc(C)cc(C)c2c1=O` (stereo not drawn), with inactive: 18.1 µM.
For the compound `COc1ccccc1/C=C1\CCC(CN(C)C)C1=O` (stereo not drawn), the GI50 is inactive: 17.5 µM.
With `BrC1=CCC23CC=C(Br)[C@H]4CC2(COC3)C[C@@H]1O4` (stereo partly drawn), the GI50 is inactive: 62.7 µM.
`CCOC(=O)C1=C(C)NC(=O)NC1c1coc2cc(C)cc(C)c2c1=O` (stereo not drawn): the GI50 is inactive: > 53.6 µM.
With `COc1ccc(CCCNC(=O)Cc2cc(OC)c(OC)cc2CO)cc1OC`, the GI50 was inactive: > 100 µM.
As to `Oc1c(Cl)cc2cc1-c1cc(cc(Cl)c1O)CCc1c(cc(Cl)c(O)c1Cl)-c1cc(Cl)c(c(Cl)c1O)/C=C\2`, the GI50 was inactive: 8.18 µM.
Regarding `Cc1nc2ccc(NC3OC(CO)C(O)C(O)C3O)cc2c(=O)n1-c1ccccc1` (stereo not drawn), the GI50 was inactive: > 100 µM.
Turning to `NNc1nnc(-c2nnc(NN)o2)o1`, the GI50 is inactive: > 10 µM.
Then `O=C(CCc1cc(-c2ccc(F)cc2)n[nH]1)N(Cc1ccccc1)Cc1ccccc1`, with inactive: > 100 µM; and `CSCCC(NCc1c(O)ccc2c(-c3ccccc3)cc(=O)oc12)C(=O)O` (stereo not drawn), with inactive: > 100 µM.
As to `COc1nc2c(OC)cccc2c(OC)c1C=O`, the GI50 was inactive: > 100 µM.
Regarding `CCCCCCCCCCCCCCCCCCNC(=S)N/C=C1/C(=O)C=C(C)OC1=O`, the GI50 is inactive: 23 µM.
Consider `O=C(O)c1ccccc1CC(Cc1ccc2c(c1)CCC2)C(=O)O` (stereo not drawn), for which the GI50 is inactive: > 100 µM.
As to `CCOC(=O)c1cc(=O)c2cccc3c2n1CCS3`, the GI50 is inactive: > 100 µM.
Regarding `O=C(NCCc1ccccn1)c1ccc2cc(C(=O)N3CC(CCl)c4ccc([N+](=O)[O-])cc43)[nH]c2c1` (stereo not drawn), the GI50 was inactive: > 60.4 µM.
Regarding `CSCSSC`, the GI50 is inactive: > 100 µM.
Regarding `O=C1CN(c2ccccc2)Cc2nc(Cl)ccc2N1`, the GI50 was inactive: > 100 µM.
As to `COc1ccc(/N=C(Nc2ccc(OC)cc2)/C(=N/c2ccc(OC)cc2)Nc2ccc(OC)cc2)cc1`, the GI50 is inactive: > 100 µM.
For the compound `CCOC(=O)c1nc2ccc(C(F)(F)F)cc2nc1NCc1cc(OC)c(OC)c(OC)c1`, the GI50 is inactive: 26.3 µM.
For `Nc1nnc(CCC(=O)Nc2cc(Cl)ccc2Cl)n1N`, the GI50 was inactive: > 100 µM.
To `Nc1ccc(-c2nc3cc(F)ccc3s2)cc1CO` belongs inactive: 17.7 µM; to `CC(C)(C)[Si](C)(C)OCC1CCC(n2cnc3c(N)ncnc32)O1` (stereo not drawn), inactive: > 100 µM; to `COc1ccc(/C(=N/NC(N)=O)C2(O)C(=O)Nc3ccc([N+](=O)[O-])cc32)cc1` (stereo not drawn), inactive: 76 µM.
`COc1ccc(N2C=Nn3c(nc4sc5c(c4c3=O)CCCC5)C2)cc1`: the GI50 is inactive: > 100 µM.
In the case of `Cc1ccc(Nc2ccc(Nc3ccc(C)cc3)c3c2C(=O)c2c(O)ccc(O)c2C3=O)cc1`, the GI50 was inactive: > 100 µM.
Take `Cc1ccc(S(=O)(=O)NC(=O)NC(CC(=O)O)C(=O)O)cc1` (stereo not drawn): the GI50 was inactive: > 100 µM.
Turning to `CO/[N+]([O-])=C\C(=O)N/C=C/C(=O)O`, the GI50 was inactive: > 100 µM.
On to `CO/N=C/c1c(-c2ccc(Cl)cc2)c(/C=N/OC)n2c1sc1ccccc12`, for which the GI50 was inactive: > 100 µM.
Take `O=[N+]([O-])c1ccc(C(Nc2ccccc2)P(c2ccccc2)c2ccccc2)cc1` (stereo not drawn): the GI50 is inactive: > 100 µM.
Consider `CCC1=C(c2ccc(OC)cc2)CC[C@@]2(CCNC2=O)[C@@H]1C`, for which the GI50 is inactive: > 100 µM.
With `CSC(=N/C=C/c1ccccc1)SC`, the GI50 was inactive: > 100 µM.
`Nc1ccc(C(=O)NN2C(=O)C(Cl)C2c2ccc([N+](=O)[O-])cc2)cc1` (stereo not drawn): the GI50 is inactive: 13.9 µM.
Turning to `CCC1(Cl)C(=O)NC(=O)N(C2CC(O)C(CO)O2)C1N=[N+]=[N-]` (stereo not drawn), the GI50 was inactive: > 100 µM.
For `Sc1nnc(Cc2ccc(Cl)cc2)[nH]1`, the GI50 was inactive: 55.1 µM.
With `OC(c1ccco1)C(F)(F)c1nc2ccccc2o1` (stereo not drawn), the GI50 is inactive: > 100 µM.
Take `Cc1ccc([N+](=O)[O-])cc1S(=O)(=O)Nc1ccc(C2=NNC(c3ccccc3O)C2)cc1` (stereo not drawn): the GI50 was inactive: 24.7 µM.
In the case of `C=C1C[C@]23CCC4C(C)(C)C(=O)CC[C@]4(C)C2C[C@H]1C(O)C3=O` (stereo partly drawn), the GI50 is inactive: > 75 µM.
Consider `CC1OC(OC2C(OC(=O)[C@]34CCC(C)(C)CC3C3=CCC5[C@@]6(C)C[C@H](O)[C@H](OC7OC(CO)C(O)C(O)C7N)[C@@](C)(C(=O)O)C6CC[C@@]5(C)C3(C)CC4)OCC(O)C2O)C(O)C(O)C1OC1OCC(O)C(O)C1O` (stereo partly drawn), for which the GI50 was inactive: > 100 µM.
As to `N#CSc1ccc(S(N)(=O)=O)cc1`, the GI50 was inactive: > 100 µM.
